Source: paper PMC7819943, “Rice protein-binding microarrays: a tool to detect cis-acting elements near promoter regions in rice”
The list shows a part of the results.

Biological target: T1, OsWOX13 (Oryza sativa, UniProt Q5QMM3 1-267)
T1 sequence: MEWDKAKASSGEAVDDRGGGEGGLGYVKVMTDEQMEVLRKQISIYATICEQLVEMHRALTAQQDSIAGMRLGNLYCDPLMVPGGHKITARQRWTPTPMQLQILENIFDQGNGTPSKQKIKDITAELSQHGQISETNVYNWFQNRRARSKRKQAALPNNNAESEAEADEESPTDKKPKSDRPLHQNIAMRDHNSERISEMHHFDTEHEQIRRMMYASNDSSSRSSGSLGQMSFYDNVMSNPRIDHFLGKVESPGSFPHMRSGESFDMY
Test: protein-binding microarray (RPBM); PBS, 2% BSA, 51.3 ng/ul salmon testes DNA, 50 uM zinc acetate, 200 nM TF, 25 C, 1 h; high values mean tight binding
Details: protein: recombinant; tags: N-terminal polyhistidine and DsRed monomer fusion (pET32a); label: CyDye5-dUTP incorporated in the synthesized complementary strand; 3' TTTTT single-stranded linker to array surface; dsDNA, one strand shown
How it was run: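 In PBS with 2% BSA, salmon testes DNA and 50 µM zinc acetate, 200 nM protein was incubated on a custom Agilent array at 25 °C for 1 h and then washed off. The array had been made double-stranded by primer extension with Cy5-dUTP and blocked with 2% BSA. The proteins were transcription factors fused N-terminally to polyhistidine and DsRed, expressed in E. coli BL21-CodonPlus and purified on Ni–NTA. The binding signal is per-feature fluorescence intensity (arbitrary units) from an Axon 4000B scanner.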

Sequence	binding signal
AACCATAATTCTCTGATTAATCATAGTATAACAACATATACGGAGTCACCTAGTGCAG	6190 fluorescence intensity (a.u.)
AGACGATTGGACTCCTAACTGCAGCTTATGATTTTCTAAACGGAGTCACCTAGTGCAG	5240 fluorescence intensity (a.u.)
AATTATCATCAATTTAGGTCCATCCATCATTCACCGACCACGGAGTCACCTAGTGCAG	10700 fluorescence intensity (a.u.)
CCATTAACAATATTGGTTTGGATTGAAACTAATGTTGGCCCGGAGTCACCTAGTGCAG	6020 fluorescence intensity (a.u.)
TCAAATTTAAATTTAAATTCAAATATCTTATATATATATACGGAGTCACCTAGTGCAG	9410 fluorescence intensity (a.u.)
GAAACTGCTAATAAATAACAATTAGTAATGGTGTAGTACTCGGAGTCACCTAGTGCAG	8130 fluorescence intensity (a.u.)
AACATGGAGAATATGCTAATTAGTAAAACATGTTGAAGTGCGGAGTCACCTAGTGCAG	3290 fluorescence intensity (a.u.)
TCTACAATTAATTAATTAAACCTCTCCATTGCAAGGGTTACGGAGTCACCTAGTGCAG	36900 fluorescence intensity (a.u.)
TTACAATTTCTAAAATTAGTAATTCTGGATCATTTACGTGCGGAGTCACCTAGTGCAG	5760 fluorescence intensity (a.u.)
CTTGACTTTGATCAAAACATCTTATAACCTTATTAAACGGCGGAGTCACCTAGTGCAG	4640 fluorescence intensity (a.u.)
CTCCAGTTGATGATAAGTAATTATTAAGAGTAAGAAATAGCGGAGTCACCTAGTGCAG	4910 fluorescence intensity (a.u.)
ACAATGACTGAGTTTTCAACCAACGACAATGGAACAGGATCGGAGTCACCTAGTGCAG	6420 fluorescence intensity (a.u.)
TGAGATTGATGTTATCTATCCATTGTTATGAGCAATCACACGGAGTCACCTAGTGCAG	34600 fluorescence intensity (a.u.)
CTGGATAATTAATTAGATGCATACGGTCAAAACACACACGCGGAGTCACCTAGTGCAG	51200 fluorescence intensity (a.u.)
ATTAATTAGACTCAGAAGATTTGTCTCGCGATTTCCATGCCGGAGTCACCTAGTGCAG	40000 fluorescence intensity (a.u.)
ATGAAATGTATTTATTTAATTATTTGTTAATGAGTTGTTTCGGAGTCACCTAGTGCAG	4870 fluorescence intensity (a.u.)
AGTTAATTTGTCTACAGTTCTCATTCTCGCTTGTCGCCGTCGGAGTCACCTAGTGCAG	34500 fluorescence intensity (a.u.)
CTAGCTTAATTAGCTACGTATACCTTCCTTGTCGCCGGGTCGGAGTCACCTAGTGCAG	30900 fluorescence intensity (a.u.)
ATTAATTAGGCTTAATAAATTCATCTCATAGTTTACAAGCCGGAGTCACCTAGTGCAG	17300 fluorescence intensity (a.u.)
GCGGTCTTCAATTTATAAGTAATTAAGTACGGCCCTGGTACGGAGTCACCTAGTGCAG	15800 fluorescence intensity (a.u.)
CTAGATTAATCCCTCTGTTTAAGCAGTCAAGCTAAACCCGCGGAGTCACCTAGTGCAG	15300 fluorescence intensity (a.u.)

Sequence	binding signal
ATGATATAGATCTAATTAATCCATTAATAAATCATCACTTCGGAGTCACCTAGTGCAG	25400 fluorescence intensity (a.u.)
AAATTAACAATCAGATATAGGGGCAATACAGTAATTCACGCGGAGTCACCTAGTGCAG	4290 fluorescence intensity (a.u.)
TTATTAATTATTTTATTTGTGACTTACTTTATTGTCTACACGGAGTCACCTAGTGCAG	27800 fluorescence intensity (a.u.)
ATATACTCAACACAAATCAATCTCGCGATCCACTGGATTGCGGAGTCACCTAGTGCAG	4440 fluorescence intensity (a.u.)
GAGTAACAAATTTGCTATAATTAAAGGATACTTTTCAGTTCGGAGTCACCTAGTGCAG	28700 fluorescence intensity (a.u.)
TGCTGATTAGACCAGCCCTATGGCGACGGTCAGATCGGTCCGGAGTCACCTAGTGCAG	36400 fluorescence intensity (a.u.)
CTTTCCAATATATTGATGATTAATCCTTTTGCGTGTTCGTCGGAGTCACCTAGTGCAG	15300 fluorescence intensity (a.u.)
ATAAATAGACTTATTTGTCATCCACTTAAAGTGTCAAAACCGGAGTCACCTAGTGCAG	11600 fluorescence intensity (a.u.)
TCTAGAATTGATCATTTTATGAAAGATGAAGTCACTACGTCGGAGTCACCTAGTGCAG	18500 fluorescence intensity (a.u.)
GTGTACAGCAAATTTGCTGTAATCATGGGCTAATATTTTGCGGAGTCACCTAGTGCAG	7210 fluorescence intensity (a.u.)
GCAGGTGATATACCTAAATTGAAAAGTAATAGGTGATTCACGGAGTCACCTAGTGCAG	7270 fluorescence intensity (a.u.)
ACGCTGATTCAATTGTCATCCAATTTCTCGATTTATCTGTCGGAGTCACCTAGTGCAG	7120 fluorescence intensity (a.u.)
TGACCAATTAACATATTTAACCACTGTAAATCTAATCCTGCGGAGTCACCTAGTGCAG	18300 fluorescence intensity (a.u.)
TCGATTGAATTTAGAATGCAATGTCTACTTCAATGAAGGACGGAGTCACCTAGTGCAG	14700 fluorescence intensity (a.u.)
GCTTGACTGACAAGCTATGATTAAATTTGCATGACGAGTTCGGAGTCACCTAGTGCAG	25600 fluorescence intensity (a.u.)
ACCTGAATGACTGAATCCTATCTTGACGCTGCAATCTGGACGGAGTCACCTAGTGCAG	18500 fluorescence intensity (a.u.)
TATCAATAATTAGTGTTATGAATAATAAATAAATTGGGTGCGGAGTCACCTAGTGCAG	29600 fluorescence intensity (a.u.)
TCTTATTAATGATGGGCACTTTGATATTTTCTTCTTTCACCGGAGTCACCTAGTGCAG	5460 fluorescence intensity (a.u.)
GATAATCTTGTTTTATCCAAGATTAGATAGTACTACTAGTCGGAGTCACCTAGTGCAG	3250 fluorescence intensity (a.u.)
CGGGTAGGGTGGGGTGGGGCGGGGTGGGGTTGGCGGCGACCGGAGTCACCTAGTGCAG	23900 fluorescence intensity (a.u.)
TTTTAGATTAGATTCTAAGAAGTTGTAGTTGTAGAATCTACGGAGTCACCTAGTGCAG	5200 fluorescence intensity (a.u.)
